Experimental data from the RNAGym collection of RNA variant scans (doi:10.1073/pnas.2313332121).
This sample is rich in variants without activity.

B1: TPR 5TU (parent)
chain: GGAUCUUCUCGAUCUAACAAAAAAGACAAAUCUGCCACAAAGCUUGAGAGCAUCUUCGGAUGCAGAGGCGGCAGCCUUCGGUGGCGCGAUAGCGCCAACGUUCUCAACUAUGACACGCAAAACGCGUGCUCCGUUGAAUGGAGUUUAUCAUG

Variants of: B1
Assay: polymerase ribozyme fitness, log enrichment relative to wild type (log ratio); higher = more active; in vitro selection for triplet polymerase activity
Outline: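 Mutant libraries of both subunits of a heterodimeric triplet polymerase ribozyme were PCR-built, transcribed, and selected once in triplicate, with frozen incubation at −7 °C and capture of gel-excised extended constructs on streptavidin beads before RT-PCR. Illumina sequencing of input and output libraries was filtered to genotypes with ≥10 input reads and ≥1 read per output. Fitness is the logarithm of genotype enrichment over wild-type enrichment, using inverse-variance-weighted replicate averages. The logarithm is base 2.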

Polymerase ribozyme fitness (log ratio), ≤ -4.2:
A3G C36U C75G A91G U104G A120G C125A A138U
C5G A30G G126A
U6A C18G C57U G88A G92C A113U G152A
U6A A24C G48U G50U G71A C87G
U4C A41C G74U C93A A115U
A3G G88C
U6A A52C G80C C93U G100U
U4C C10G U56G A64G G65C A91C C93U
A3U G25C G46C U78C C93U
C5A C14U G34U
U4G U15C A30U C35U G42A G84U C85A U101A G117A
A3U C36G C63G G84A C105A C123A C131G
C5G A19U U56C A137U U139A G140U A142U
C5A C8U A16U C76A G92C U139A
A3U A23C C32A C72A A73C A89G C95U U104G
A3U A28U A40G U77C C93U
A3U C5G A30G U45A U78C G80C A89C G94U
C5G U9G A28C A29C A40G U45C A91C C114A C118U U127C
U4G C5A U31A C36G C63G C69G G133A
U4A U31C U55A G65C G80C C114U
A3G C43U C93G A119U A120C
C5A A29C C69G C95U C96U A107G A138U
C5A A28U C36A A47U C54U G88U U130G
C5A A73G C87U C129A U134C A142U
U4A G25A C54A G83A G92A
U6A A24U C87A
U4A A41C C105U C129A G136A
U4C C10G C18G C32G A39U C79U G84A C99U U104G
U4G A29U C51G G83A
U6A C27G G50C C54U U55A G62A A106U
U4G C36A A52G C57A G86U C116U G141C
C5A C10A A26U C76U G86U C96A
C5G G136U U139A A142C
C5G C8A C10U C27G G48C C93A U134A
A3G A21U C35A C85U G112U A147C G152A
A3G G92C C95U A107C A113G C114U A138G
C5G C27G C38A C57A G92U U102C G112C G136U U146C
C5G A28U A30U A40G G46A U134G U144C
U4C C8G C14G G59U C85G A113U C125G
U4C U53C C72A U139C A150G
C5G U31A U55G C57U C69A U134G A150G
C5G A20G G34C G59A G86C G133A
U4A U102A U111G
A3U U13A C32G C54U C69A G94U C96A A97G U144G U151G
C5A C54U C69G C96A U101G A110U
A3U C18G C43U G58U C79A G88C C103A C125A
C5A A21G A40G C76A C79G C99G U134G A147C
A3U A29U A47C G71C
U4C C43G A49C G88C
C5A A23G A47U G50U U53A G81C A120G U145C
U4G G11U A26U A47C C85G G94A A110G A121U
U4C U9A A66C
C5U U13A C54A U90C C93U C132U
A3U A23U G46A U55G G80C G92A U111A G141C A147C
C5U U78A C93G
U4G A16U C38U C54U G83A G141C U145G
C5A A52C G84A U139A
A3U G50A A64G U146C
U4A A20G C54U U55A G62C G68A C96A G143U
U4G C57A G80A U111C G141U
C5G C51U A52G C87U G92C A138U
A3U U61G C76A C96G C105G
C5U G70U C85G A107G U139G
U6A C18G A41U C76G C93A C125G U139C C149G
A3G C75G G92U U101G
C5A C51U U53G C57U G59C G94U A97G C99A
C5G A24G U55G C96A U146C
C5A U53A C76G G86U A91G A147U
A3U C27G A30U A40U C51U G62C C85U A91G G100A G136A
C5G A23U U56C C57U C95U C105G
C5G C8A C14U A23C G94A G133U
C5U A20U C38U C57A C76A C85G U139A
C5U A37U C75G G92C A107G C114U G128C C131A C149U
A3G U13A C57A A60G A66G C96G U101G
U4C C32G G48U G86A U90G
U4C A24C A47G G50C C63G U109A A147C
C5G G42A G88U U101G G124U U148A U151C
A3U C8G G65U A97G C99A
C5A A22U A24U C38U A47G G48U A52U G74U C118A
A3G G94A C99A U109G A113G
U4C C10U G25A U61A C69U C95A G141U
U4A C10G A52G G74A C76U G84C C118G G143U A150G
C5G A12C A49U A91U C95G C99G G124U
U4G A22C A26U C57A G58C C76A U82G C85G A98U C103G G117U
U4C C8G A12C C35G G68U A73G G94A U148C
C5A A17U A49U U61A C103G C118A U139G
C5U A19U A28C C85U A110G C129A
A3G A21G A28U A37U G88C
A3G A28U A29G C75G C95U C131A
C5A U55A U135G A138U
C5U G48A G68A G83U C85G
C5U C43G A49C C75U C76G U77G G94C
U4G C87G U139A
A3U U45G A52C G59C G68A C93U
C5U U9A A16C U90C A97C A107C
A3U C35A G74A C95G A121U
C5U A21G U56A C75U G84A U90C A98C
A3G A20C A22U A39G U55A G112C
A3G A22C A37U A60U C85A G94A
A3U G50U G80U C116A G124U
U6A C35A U56A C85U A89C C93G C99U G141A U144C
A3U G86A U148A
A3U G50A G81C C85A U109G
C5U G11A A60G A66G G83C A98U A107C G143C
U6A C8G G11U A22G A30C G50C U53A C85G A115U
A3U C18A G83A G92A A107G G143C
U4A C43U G58C C95G A113G C114G C116G
C5G G50C G70A C96A C105G C114G C125A
C5A A29C C38U C87A A91G
U4G A12U A49G C87G G88A C125A
U4A U15A A22C C54A A66G C99G C116U
A3U A24G C76G U144C
U4C U7G A19U A20G A29U G70C A110C
A3G G50A A52G G71A G74A C125A
U4G A37C G50A G58A A91U C96A A119G
U4C A39G G42A C87U
C5G A16U A21U A37C C87U C96A A113U
U4C A26G C35G C51U U55A U61A C95A C96U G140A
U6A C18U C75U A91U C95U C108U
U4G A12U A73G G81A G92U C99A C125A U134C
U4A C14U A19G A21G U61C G88C G117C A138C
A3G U44G U55A C99G U148A
U6A A26U C54A C93U G128A
C5U C14A A17U C32U A49C U53A C93A
A3U A21G A66C G80C A91C C96G
U4C C43U C51G C87U
C5G C10U A21G A29G A47U C54A A73U C95A C96A U102A C118U G141C
C5G U33G C51A C87U A107U C123A U135C G143U
C5U A22U C87A A138C U148A
C5A A22U A23C A30C G92A
U4C C27A A47U C54A C57U U61A U77G C105G C108U G126C
U4C A26U U45C G94U C105G G124U G143C
C5U A28U C54U G84U C99U G141U G143C
C5U U31C U56A C76G C85A A89U C116A C125U G140U
A3U U9A A17U C27U A41C U53G C85U G92C U148G
U4G U13A C87G
U4A A30U G70A G80A G92A U101C C118A A138C
U6A A30U G84A C93A
U4G A12C A26U C43A U45G G48A G81A C103G G143A
C5G U6G C27G G136U U144G
C5U A37U U44A C85A A113U
A3U C5G A12C U44C C85A C118U A142G
U4G A22C U31C A91G U127A G133A
C5A A16C A40U C79A C87U
U4G U53A U55G C75U G86C U146G
U6A A19C A23G A24U A73G A107C C132G G133C
U4C U6A C14G A30U U109G
C5U C36A U82C C93U U135G
C5A C14A A17U U45A G50A A107C C118U
C5U C35U C79A
C5U A19C A22G A37C G42A C69A G86A C108U C132U U146A
C5U A24G G50A G94A G141C
U6A A19C A41U U55G G84A G117A C125A U135G U139C A142C
A3U A16U A52C G94C A97C U144C
C5G A19U U33G A37C A39U A52C G83C
A3G C8A U15G U78A C85A U144C U146G
A3G A22U U33G U55A C93U
A3G C14G A39G U61A G67C C85G C96U C103U A110U
A3U C27U A52U G70A C87G A97U
C5G C14G A21U G62C U77G C95U
C5U C35A A39G C93G U127G
C5G A41U G68A A97G A98U U145C
A3G A64G C85U C96U C131G A147U
U4C U15G A20G A47C A52U C85A G88U C93A A97C A119U A150U
U4G U33C C51G A142U
C5A A20G A49C C85U G88C A115G A120G A150G
A3U A22U A73G A106U A150C
